This is one part of the list.
B1: chr4:169989555:169989656:-|3pUTR|ENSG00000198948|unk|FALSE|unique (ssRNA)
RNA: GGGAGUUCUACAGUCCGACGAUCUUGGACAACUCCCUUCCUCUCUCUGGGAUUUAAUCUUUUUCAUCUGUAAAAUAUGCAGGUAGUACUCGAGGGUCUACAGGAUCCCUUCUAGUUGAAACAUUUAUAGUUCACAGAAAGUUUCAACAGAGGAUUGAGCAUCA
B2: chr7:16791810:16792950:-|three_prime_utr|ENSG00000106541|control|control|control (ssRNA)
RNA: GGGAGUUCUACAGUCCGACGAUCAGCCCUUCUGUCUGUCAGGCCUUGAGACUUGAAACCAGAAGAAGUGUGAGAAGACUGGCUAGUGUGGAAGCAUAGUGAACACACUGAUUAGGUUAUGGUUUAAUGUUACAACAACUAUUUCAACAGAGGAUUGAGCAUCA
B3: chr1:11013840:11013957:+|CDS|ENSG00000120948|unk|FALSE|unique (ssRNA)
RNA: GGGAGUUCUACAGUCCGACGAUCGGCGUGUGGGCUUCGCUACAGGAAUCCAGUGUCUCAGUGUAUGAGAGGUGUCCGGCUGGUAGAAGGAAUUCUGCAUGCCCCAGAUGCUGGCUGGGGAAAUCUGGUGUAUGUUGUCAACUACAACAGAGGAUUGAGCAUCA
B4: chr1:92323927:92324037:+|CDS|ENSG00000122484|unk|total|mutant (ssRNA)
RNA: GGGAGUUCUACAGUCCGACGAUCAGUGCAGAGCAUUUUAAGAGAAAAUUUGCCAAAUCAAACCAAGUGUCCCGGUCAGUGUCCCGUUCAGUGCAGGUGUGUCCUGAAGUUGGAAAGAGAAACUUACUUAAAGUUUUGAAGGAGCAACAGAGGAUUGAGCAUCA
B5: chr21:41885111:41889123:-|three_prime_utr|ENSG00000157617|control|control|control (ssRNA)
RNA: GGGAGUUCUACAGUCCGACGAUCCCAACUUGCCACCAGAUGCUAAAUGAGACUUGACAGCUGCAGAGCUUGGGCUGUGCUCAUAGCUAAGGGUUAGGGUUCAAUAUUAGAAGGAGAUUAACAUUAUAAGUGAAAUAAUAUGCUCAACAGAGGAUUGAGCAUCA
B6: chr13:109754583:109754684:-|3pUTR|ENSG00000185950|msi1|FALSE|unique (ssRNA)
RNA: GGGAGUUCUACAGUCCGACGAUCGAUCUCCCUGAACAUUUUUAAGGUUUUACUUUUCUGAAAUUAUACAUCACAGCAGUGCAUAGGCCAUAUAAUGUUAGCUGGAAGGUCAAUUUCAGUGUAUGAUAUACUUUAUUAAGAUGUCAACAGAGGAUUGAGCAUCA
B7: ENSG00000198589:be:win_6151|CDS|ENSG00000198589|bound_else_gene|NA|bound_elsewhere_windowed (ssRNA)
RNA: GGGAGUUCUACAGUCCGACGAUCACUCUGUCAUCCGUGGAUGAGAAAGAUUUAGAGAAUCUUGCCGGUCCUGUUAGCCUGAGCACACCAGCUCAGCUUGUGGCCCCCUCUGUUGUAGUAAAGGGCACUCUUUCUGUCACCUCCCAACAGAGGAUUGAGCAUCA
B8: ENSG00000170502:stop:overlap|stop_codon|ENSG00000170502|stop_codon|NA|stop_codon (ssRNA)
RNA: GGGAGUUCUACAGUCCGACGAUCUGGCUGAGAAACGAGAUGCACACUGGAGCGAGGACUCUGAAGCUGACUGCCAUGCGUUGUAGCUGAUGGUCUCCGUGUAAGCCAAAGGCCCACAGAGGAGCAUAUACUGAAAAGAAGGCACAACAGAGGAUUGAGCAUCA
B9: chr1:35359206:35359314:+|CDS|ENSG00000146463|unk|FALSE|bound_elsewhere (ssRNA)
RNA: GGGAGUUCUACAGUCCGACGAUCAAAGACUUUCCUAAACAAUUUGAUCAGGUUUCUGUCUUUAAAUCAAUACGGAAAGAUUUUAGUCUAGUAAGAGAAAACAGCAAAGAGACAUUUUCUGGAAAGGAGAAAAAUAGAGACCUACAACAGAGGAUUGAGCAUCA
B10: chr9:15171111:15171212:-|3pUTR|ENSG00000155158|unk|total|mutant (ssRNA)
RNA: GGGAGUUCUACAGUCCGACGAUCCUGCUUUAAAUGAUAUGUAAAAUAUCAAUAAUUUUUACACUUAAGAUGUUGGUAAGACCCCGUUUUCUAAUCUCUCCCGCACUGUGAUGUCUCCUUGCCGAUAAUCUGGACCUUGCUCCGCAACAGAGGAUUGAGCAUCA
B11: chr1:110340924:110341033:+|CDS|ENSG00000162775|unk|FALSE|unique (ssRNA)
RNA: GGGAGUUCUACAGUCCGACGAUCUGCUGCCUGGACCCAUAUGCGGGGCUUCCCACUUGGUGGCCCAGAUCGACGCCUUAGAGUAGACUUUGCCGACACCGAACAUCGUUACCAGCAGCAGUAUCUGCAGCCUCUGCCCUUGACCAACAGAGGAUUGAGCAUCA
B12: chr9:35056615:35056731:-|3pUTR|ENSG00000165280|msi1|total|mutant (ssRNA)
RNA: GGGAGUUCUACAGUCCGACGAUCCCCUAUCCAACCUGGGCCGGUGGGCCGGGGCCACAGUUGCUGGAUGUUUAUACCGAGAGCCGGUUGAUUUAUUUUACAUGCUUUUGAGUUAAUGUUGGAAAACUAAUCACAAGCAGUUUCCAACAGAGGAUUGAGCAUCA
B13: ENSG00000086827:stop:overlap|stop_codon|ENSG00000086827|stop_codon|NA|stop_codon (ssRNA)
RNA: GGGAGUUCUACAGUCCGACGAUCUAAUUCGUGCCUUGUUUCAGAACACAGAAAGAAGAGCAGCUGCCCUUGCUAAAAUUAAAUAGCUCCAUCUUCUUAAGAAAGCUAUGUCUUGAAUAUGUGGAUUCUUCCCUUGGCAUAAUUCAACAGAGGAUUGAGCAUCA
B14: chr2:222942681:222942782:+|3pUTR|ENSG00000123983|msi1|FALSE|unique (ssRNA)
RNA: GGGAGUUCUACAGUCCGACGAUCAAAAUUAGUGUUUUUCCUAGUUUGCACUGAUGCGUGUAUGGAUGUGUGUGAGUCAGUGGUAGCUUAUUUAAAAAGCACCUUAUCCUUUCUCCCAUAACCUUUGUACACUAAAAAAUGAAACAACAGAGGAUUGAGCAUCA

The binders below were run against MSI1 full-length (mouse, UniProt Q61474 1-362) (assay: nsRBNS (natural sequence RNA bind-n-seq); RBNS binding buffer (assumed for nsRBNS): 25 mM Tris pH 7.5, 150 mM KCl, 3 mM MgCl2, 0.01% Triton X-100, 500 ug/ml BSA, 20 U/ml SUPERase-In, 4 C; UNK is unkempt and MSI1 is Musashi-1; names of the RNAs are library labels; protein concentration not given here; high values mean tight binding).
Sequence of UniProt Q61474 (Q61474 whole entry): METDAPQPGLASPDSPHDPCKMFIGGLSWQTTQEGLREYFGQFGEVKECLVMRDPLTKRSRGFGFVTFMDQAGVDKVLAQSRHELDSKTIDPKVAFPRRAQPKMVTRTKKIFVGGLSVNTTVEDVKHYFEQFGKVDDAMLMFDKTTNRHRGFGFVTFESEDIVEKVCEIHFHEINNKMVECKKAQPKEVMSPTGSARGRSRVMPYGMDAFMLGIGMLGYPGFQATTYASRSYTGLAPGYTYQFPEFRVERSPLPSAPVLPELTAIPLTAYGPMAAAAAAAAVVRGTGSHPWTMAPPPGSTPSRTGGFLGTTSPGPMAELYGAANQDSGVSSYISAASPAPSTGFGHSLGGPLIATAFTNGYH

| Binder | binding signal [enrichment R] |
| --- | --- |
| B1 | 0.869 |
| B2 | 1.19 |
| B3 | 0.5 |
| B4 | 0.422 |
| B5 | 5.8 |
| B6 | 0.697 |
| B7 | 0.565 |
| B8 | 0.705 |
| B9 | 2.98 |
| B10 | 0.417 |
| B11 | 0.745 |
| B12 | 0.467 |
| B13 | 1.89 |
| B14 | 0.719 |
